# ± gives the standard deviation of the averaged measurements. Whole data set: some 4,100 sequences, median “relative kcat/Km (krel) vs genomic leader AAAGAU” near 1.7, cut for the highest 2% near 6.5. Only a part is listed here, and it is no random draw.
# Molecular target: T1, E. coli RNase P holoenzyme (M1 P RNA + rnpA protein) (UniProt P0A7Y8)
# T1 sequence: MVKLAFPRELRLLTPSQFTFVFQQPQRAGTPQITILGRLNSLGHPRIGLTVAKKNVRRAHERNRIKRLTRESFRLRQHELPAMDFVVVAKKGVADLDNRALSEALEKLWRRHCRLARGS
# Assay: relative kcat/Km (krel) vs genomic leader AAAGAU (relative (reference leader = 1)); higher = faster RNase P cleavage
# Summary of the method: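 Under multiple-turnover conditions at 37 °C, a precursor tRNA-Met pool randomized at leader positions −6 to −1 was processed by E. coli RNase P holoenzyme (P RNA plus C5 protein) in 50 mM Tris-HCl pH 8, 100 mM NaCl, 17.5 mM MgCl2. The remaining precursor was gel-purified at ~5–30% conversion, then converted to cDNA libraries and Illumina-sequenced. Relative kcat/Km (krel) came from read ratios by internal competition kinetics, normalised to the genomic leader, with two technical replicates averaged.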
# [1] = fraction of substrate reacted: ~26-29% (28.66% repeat 1, 26.4% repeat 2)
# [2] = fraction of substrate reacted: ~9-10% (9.79% repeat 1, 9.1% repeat 2)
# [3] = fraction of substrate reacted: ~13-16% (15.68% repeat 1, 13.17% repeat 2)
Sequence,relative kcat/Km [1],relative kcat/Km [2],relative kcat/Km [3]
GGCACG,0.693 ± 0.54,–,–
GAGCGC,1.38 ± 0.046,0.85 ± 0.13,0.587 ± 0.32
AGCGGG,1.01 ± 0.95,0.0931 ± 0.011,–
CAGTAT,5.7 ± 2.5,2.65 ± 0.36,3.77 ± 0.85
GCCCCG,1.32 ± 0.2,–,0.45 ± 0.074
AAAAAT,1.72 ± 0.37,1.72 ± 1.1,1.24 ± 0.58
GGAACT,1.52 ± 0.097,–,0.728 ± 0.3
CAATAA,4.25 ± 1.8,2.28 ± 0.27,2.951 ± 0.0067
CCTTAG,2.62 ± 0.3,2.17 ± 1.6,2.07 ± 0.55
GGCTAT,2.88 ± 0.85,2.25 ± 0.98,1.99 ± 0.48
GCGCGT,1.22 ± 1.2,–,–
AAGAAA,2.85 ± 0.63,2.38 ± 1.3,1.63 ± 0.02
AGTCCT,3.91 ± 1.6,2 ± 0.37,2.46 ± 0.26
ATGCTG,0.658 ± 0.54,–,–
GAGCGG,0.639 ± 0.21,–,–
TCACAT,6.08 ± 2.7,3.6 ± 1.2,4.18 ± 0.55
AATAGA,3.29 ± 0.63,1.72 ± 1.3,1.85 ± 0.39
CTTTAT,8.16 ± 3.3,4.88 ± 2,5.78 ± 0.63
GCCGCA,5.08 ± 1.7,2.3 ± 0.6,3.11 ± 0.086
ACGAAG,1.32 ± 0.25,–,–

Sequence,relative kcat/Km [1],relative kcat/Km [2],relative kcat/Km [3]
CGTCCG,1.16 ± 0.23,1.52 ± 0.75,0.713 ± 0.56
AAACAT,3.53 ± 1.4,2.43 ± 1.1,2.55 ± 0.06
GCGGCC,0.642 ± 0.18,1.21 ± 0.092,0.582 ± 0.12
CTTTCC,2.57 ± 0.53,1.8 ± 0.6,2.12 ± 0.92
TCGAAC,5.15 ± 2.2,3.55 ± 1.6,3.72 ± 0.18
ATCACC,5.67 ± 2,3.18 ± 0.62,3.68 ± 1
GTCCTT,7.02 ± 2.8,3.67 ± 1,4.82 ± 0.56
GTGGCA,1.12 ± 0.86,–,–
AGATAA,5.48 ± 2.6,2.59 ± 0.14,3.51 ± 0.92
TCCGTA,5.51 ± 2.2,2.85 ± 0.05,3.62 ± 0.96
TCGTTT,4.26 ± 2.1,2.4 ± 0.025,2.68 ± 0.65
CCTCAA,3.05 ± 0.33,2.75 ± 1.1,1.99 ± 0.35
AAACCC,1.32 ± 0.083,1.64 ± 0.95,0.786 ± 0.21
ATCGAG,3.85 ± 0.66,2.14 ± 2.1,1.29 ± 0.12
GAGTAT,4.38 ± 2.1,2.33 ± 0.52,3.07 ± 0.75
AGCCTT,2.73 ± 0.55,2.12 ± 0.94,2.28 ± 0.084
ACTAAT,3.22 ± 1.2,1.95 ± 0.5,2.38 ± 0.53
GATAAT,4.06 ± 2.4,1.93 ± 0.55,2.59 ± 1
AGGCCG,0.467 ± 0.21,–,–
AGATGG,0.719 ± 0.16,0.596 ± 0.51,–

Sequence,relative kcat/Km [1],relative kcat/Km [2],relative kcat/Km [3]
CAATGT,2.04 ± 1.8,–,1.9 ± 1.3
TCTTAA,5.75 ± 2.3,3.57 ± 1.1,4.04 ± 0.61
GGGGTC,1.83 ± 1.7,–,–
TTAAGG,1.04 ± 0.041,–,–
GAGGTT,1.79 ± 1.5,–,–
TGCGTT,1.31 ± 0.86,0.865 ± 0.51,0.933 ± 0.25
GACCCG,1.32 ± 0.2,–,0.0485 ± 0.04
TTATTC,3.96 ± 1.2,2.83 ± 1.9,2.92 ± 0.69
CGGGTT,–,0.764 ± 0.66,–
AGATGA,4.17 ± 1.6,2.02 ± 0.56,2.67 ± 1.2
CTACTT,2.49 ± 0.63,2.09 ± 0.14,2.2 ± 0.49
TGATCT,3.43 ± 1.4,2 ± 0.61,2.08 ± 0.73
TATGTT,1.53 ± 1,0.82 ± 0.16,1.39 ± 0.41
TCTCCG,1.1 ± 0.078,0.763 ± 0.37,–
GTACTA,1.83 ± 0.47,1.56 ± 1.2,1.31 ± 0.12
CCTTGC,4.58 ± 2.1,1.73 ± 0.64,3.05 ± 0.32
GTCCAC,8.78 ± 3.9,5.04 ± 1.9,6.06 ± 1.1
CTACTA,1.72 ± 0.24,1.85 ± 0.72,1.606 ± 0.0065

# — the supplement of paper PMC9433436
